Data: the supplement of paper PMC7826260
The other results are listed elsewhere or left out. Cleavage of a single-stranded DNA pool by Rep nickase domains was read by sequencing (1 h at 37 °C, 3 µM enzyme); the outer parts of the 90-letter strands are left off. The score is log2 (uncut reads / reads without enzyme); strong cutting gives strongly negative numbers. There is no active / inactive call. The scaling is to total reads; values above 0 arise when much of the pool is cut.

Legend:
Test in all cases: uncleaved DNA left, log2 of reads against the no-enzyme library (log2 ratio); higher = less cleavage (more negative = more Rep cleavage of the k-mer); sequences stand for … in CTCGTCCG…ACCGGAGA
[1] = tested on: T1, Rep nickase domain of Muscovy duck circovirus
T1 sequence (residues 1-111, tag not shown): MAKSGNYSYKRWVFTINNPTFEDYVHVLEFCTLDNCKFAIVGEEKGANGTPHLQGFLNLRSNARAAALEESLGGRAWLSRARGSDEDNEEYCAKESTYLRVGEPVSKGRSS
Description: (§1)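 A pool of 90-nt single-stranded DNAs with seven random bases just before the constant AC of the nick site (name = the seven bases) was cut by 3 µM recombinant His6-SUMO-tagged Rep nickase domain (300 nM DNA, 50 mM HEPES pH 8.0, 50 mM NaCl, 1 mM MnCl2, 1 h, 37 °C, three replicates). Uncut DNA was amplified and sequenced.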

[2] = tested on: T2, Rep nickase domain of banana bunchy top virus
T2 sequence (residues 1-94, tag not shown): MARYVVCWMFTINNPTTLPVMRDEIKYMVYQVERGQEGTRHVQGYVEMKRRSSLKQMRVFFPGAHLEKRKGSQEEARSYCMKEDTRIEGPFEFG
Description: as §1

[3] = tested on: T3, Rep nickase domain of cabbage leaf curl virus
T3 sequence (residues 1-116, tag not shown): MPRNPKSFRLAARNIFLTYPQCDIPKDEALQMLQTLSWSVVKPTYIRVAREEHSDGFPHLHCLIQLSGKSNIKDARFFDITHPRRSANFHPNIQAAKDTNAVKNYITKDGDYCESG
Description: as §1

[4] = tested on: T4, Rep nickase domain of chickpea chlorotic dwarf virus
T4 sequence (residues 1-124, tag not shown): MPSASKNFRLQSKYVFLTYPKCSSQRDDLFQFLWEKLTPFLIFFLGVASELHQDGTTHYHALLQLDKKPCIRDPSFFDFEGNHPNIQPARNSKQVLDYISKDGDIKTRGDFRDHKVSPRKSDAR
Description: as §1

[5] = tested on: T5, Rep nickase domain of faba bean necrotic yellows virus
T5 sequence (residues 1-98, tag not shown): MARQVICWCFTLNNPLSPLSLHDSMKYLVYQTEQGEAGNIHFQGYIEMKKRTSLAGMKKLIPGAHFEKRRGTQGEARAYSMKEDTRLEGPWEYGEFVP
Description: as §1

[6] = tested on: T6, Rep nickase domain of maize striate mosaic virus
T6 sequence (residues 1-117, tag not shown): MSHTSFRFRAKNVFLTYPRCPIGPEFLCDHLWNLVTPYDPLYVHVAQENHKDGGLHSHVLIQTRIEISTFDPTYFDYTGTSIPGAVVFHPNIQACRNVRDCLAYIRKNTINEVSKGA
Description: as §1

[7] = tested on: T7, Rep nickase domain of porcine circovirus 2
T7 sequence (residues 2-116, tag not shown): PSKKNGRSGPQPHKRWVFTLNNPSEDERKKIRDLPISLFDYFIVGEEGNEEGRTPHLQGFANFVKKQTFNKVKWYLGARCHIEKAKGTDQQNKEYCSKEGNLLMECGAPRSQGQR
Description: as §1

[8] = tested on: T8, Rep nickase domain of tomato golden mosaic virus
T8 sequence (residues 1-124, tag not shown): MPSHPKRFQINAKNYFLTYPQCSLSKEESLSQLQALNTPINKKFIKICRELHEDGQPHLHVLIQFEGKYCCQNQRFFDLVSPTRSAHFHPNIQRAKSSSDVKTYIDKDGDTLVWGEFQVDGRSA
Description: as §1

[9] = tested on: T9, Rep nickase domain of tomato yellow leaf curl virus
T9 sequence (residues 1-136, tag not shown): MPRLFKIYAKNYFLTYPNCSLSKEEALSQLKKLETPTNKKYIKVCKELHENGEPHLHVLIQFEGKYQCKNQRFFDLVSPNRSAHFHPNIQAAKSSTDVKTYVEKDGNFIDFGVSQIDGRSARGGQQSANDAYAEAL
Description: as §1

[10] = tested on: T10, Rep nickase domain of wheat dwarf virus
T10 sequence (residues 1-137, tag not shown): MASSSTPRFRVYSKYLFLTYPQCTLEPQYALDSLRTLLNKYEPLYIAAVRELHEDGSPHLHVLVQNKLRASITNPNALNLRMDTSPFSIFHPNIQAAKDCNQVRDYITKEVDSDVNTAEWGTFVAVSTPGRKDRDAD
Description: as §1

Sequence	uncleaved DNA left (log2) [1]	uncleaved DNA left (log2) [2]	uncleaved DNA left (log2) [3]	uncleaved DNA left (log2) [4]	uncleaved DNA left (log2) [5]	uncleaved DNA left (log2) [6]	uncleaved DNA left (log2) [7]	uncleaved DNA left (log2) [8]	uncleaved DNA left (log2) [9]	uncleaved DNA left (log2) [10]
TAGCACC	0.112	0.0295	0.097	-0.323	-0.0117	-0.179	-0.171	0.00533	0.0867	0.0717
CCTGTTA	0.0282	0.0228	-0.0942	-1.22	0.113	-0.458	-0.0209	-0.0078	-0.175	0.00689
AAGATCT	-0.0113	-0.381	-0.179	-2.39	-0.0764	0.224	-3.56	-0.0445	0.017	0.0415
ACTAAAG	0.114	0.078	-0.67	-0.199	0.061	-1.02	0.336	0.0237	0.153	0.0274
CGATATG	0.0202	-0.0774	-0.157	0.565	-0.00518	0.991	0.0331	0.0242	0.0275	0.048
CTACTGG	0.0478	0.109	-0.0456	-0.0442	0.0117	-0.00147	0.174	0.0355	-0.0468	0.0882
CTCGTAG	0.12	0.0532	-0.738	-0.6	0.0206	-1	0.233	0.0718	0.062	-0.031
TTCGAAA	-0.196	-0.127	0.128	0.108	-0.075	-0.363	0.00829	-0.065	-0.0646	-0.0323
CTAGCGT	0.0763	-0.0484	-0.79	-0.831	-0.000843	-0.951	0.0626	-0.000184	0.0593	0.0283
GGCACGG	-0.00366	0.129	0.393	1.38	-0.109	2.05	0.082	0.0588	-0.049	0.103
CCCAAGC	-0.105	0.126	0.16	0.632	0.166	0.0762	0.166	0.00667	-0.0959	0.127
ATGTAAG	0.0872	-0.0758	-0.693	-0.192	0.024	-1.21	0.169	0.189	-0.0298	-0.0568
ATGGGGC	0.0854	0.00805	0.531	1.14	0.144	1.01	0.342	0.0571	0.165	0.0011
CCCACAG	0.0118	-0.0296	-0.685	-0.784	-0.00358	-0.964	0.135	-0.0252	-0.0495	-0.0371
CGGGCGG	-0.0646	-0.0488	0.266	0.948	-0.104	1.24	-0.0296	0.00708	-0.0713	-0.077
CCAGGTC	0.0455	0.0547	0.403	0.657	-0.0994	0.579	-0.051	0.0407	0.0256	0.0486
AGGCATA	0.0434	0.113	0.342	1.03	0.0293	1.25	-0.061	0.00303	0.051	0.192
ATAAGAT	-0.0108	0.0228	-0.995	-0.766	0.0612	1.4	0.194	0.0412	-0.138	-0.0986
ATTTCCG	0.108	0.0233	-0.859	-0.121	0.0391	-0.966	0.287	-0.00285	-0.111	-0.0198
ACTCTTA	-0.104	-0.209	-0.147	-1.51	0.0259	-0.915	-0.1	-0.0601	-0.102	0.00522
AATCATA	0.0727	-0.0222	-0.0985	-2.39	-0.06	-0.646	-0.115	0.0469	-0.03	0.0254
TTCTACT	-3.64	-0.63	-1	-2.94	-0.17	-0.276	-3.52	-0.187	-0.0564	-0.226
ACGATTA	0.0759	0.00279	-0.185	-1.15	0.134	-0.269	0.122	0.116	-0.0258	0.111
CATACAA	0.00485	0.0411	-0.119	-1.05	0.0127	-0.789	0.00034	-0.0992	0.0344	-0.0401
CCGAGAC	0.0671	0.0209	0.831	1.49	-0.0426	2.05	-0.0079	-0.0202	-0.0639	0.102
TCCGCGC	-0.00198	-0.147	-0.811	-0.247	-0.167	-0.687	-0.000225	-0.159	-0.147	-0.313
TAGTTCT	-3.51	-3.46	-2.93	-2.98	-3.14	-0.337	-4.39	-0.66	0.118	-0.484
CGACTGT	-0.00216	-0.0276	-0.0655	0.589	-0.0643	1.64	-0.00656	0.0264	0.00126	-0.0104
TTAGTGA	0.19	-0.103	-0.115	-0.342	0.0882	-0.875	0.0164	0.0714	0.0407	-0.0431
GCCACTC	-0.0575	0.029	0.104	0.175	-0.0584	0.106	-0.023	0.0105	0.0796	0.0269
